# Results published in the supplement of paper PMC12217912.
# This is one part of the list. Sequences were assembled here from the parent chain. Values near 0.05 are background.
# B1: TEV protease; numbered along this chain (parent)
# chain: MGESLFKGPRDYNPISSSICHLTNESDGHTTSLYGIGFGPFIITNKHLFRRNNGTLVVQSLHGVFKVKDTTTLQQHLVDGRDMIIIRMPKDFPPFPQKLKFREPQREERICLVTTNFQTKSMSSMVSDTSCTFPSGDGIFWKHWIQTKDGQCGSPLVSTRDGFIVGIHSASNFTNTNNYFTSVPKNFMELLTNQEAQQWVSGWRLNADSVLWGGHKVFMVKPEEPFQPVKEATQL
# Variants of: B1
# Assay: raw area under fraction-flipped curve 0-4 h after induction (AUC4h, not background-subtracted), DNA-recorder readout of cleavage of the substrate (dimensionless); higher = more cleavage of the substrate by the protease variant
# Conditions: temperature: 34 °C; time window: 0-4 h after rhamnose induction
# Method: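 In vivo DNA recorder in E. coli TOP10(DE3) ΔrhaA at 34 °C. Each TEVp single-site mutant (parent TEVp 0) is paired with a single-site variant of the 7-mer TEVs (canonical ENLYFQ|S). The substrate sits between flexible linkers in a Bxb1-sfGFP-TEVs-SsrA fusion, so cleavage stabilises Bxb1 and speeds flipping of a recombination array, read by NGS. The value is the raw area under the fraction-flipped curve over 0-4 h after rhamnose induction (AUC4h), with ≥20 reads per time point. It is not background-subtracted; inactive controls average about 0.047.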
# 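Also: Bxb1 expression induced with 0.2% (w/v) L-rhamnose at OD600 near 0.5, cultures sampled hourly, flipped fraction per protease–substrate barcode pair counted by paired-end Illumina sequencing.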
Variant,area with substrate ENLYFAS,area with substrate ENLYFCS,area with substrate ENLYFDS,area with substrate ENLYFFS,area with substrate ENLYFGS,area with substrate ENLYFIS,area with substrate ENLYFKS,area with substrate ENLYFMS,area with substrate ENLYFNS,area with substrate ENLYFPS,area with substrate ENLYFRS,area with substrate ENLYFVS,area with substrate ENLYFYS,area with substrate ENLYFHS,area with substrate ENLYFWS,area with substrate ENLYFES,area with substrate ENLYFLS,area with substrate ENLYFSS,area with substrate ENLYFTS
MGESLFKGPRDYNPISSSICHLTNESDGHTTSLYGIGFGPFIITNKHLFRRNNGTLVVQSLHGVFKVKDTTTLQQHLVDGRDMIIIRMPKDFPPFPQKLKFREPQREERICLVTTNFQTKSMSSMVSDTSCTFPSGDGIFWKHWIQTKDGQCGSPLVSTRDGFIVGIHSASNFTNTNNYFTSVPKNFMELLTNQEAQQWVSGWRLNADSVLWGGHKVFMVKPEEPFLPVKEATQL [Q227L],0.057,0.0582,0.0617,0.0777,0.0564,0.052,0.0678,0.072,0.0672,0.069,0.039,0.0725,0.0578,–,–,–,–,–,–
MGESLFKGPRDYNPISSSICHLTNESDGHTTSLYGIGFGPFIITNKHLFRRNNGTLVVQSLHGVFKVKDTTTLQQHLVDGRDMIIIRMPKDFPPFPQKLKFREPQREERICLVTTNFQTKSMSSMVSDTSCTFPSGDGIFWKHWIQTKDGQCGSPLVSTRDGFIVGIHSASNFTNTNNYFTSVPKNFMELLTNQEAQQWVSGWRLNADSVLWGGHKVFMVKPEEPFVPVKEATQL [Q227V],0.0556,–,0.0467,0.07,–,0.0595,0.0571,0.0869,0.0639,0.0608,0.0633,–,0.064,0.0588,0.0472,–,–,–,–
MGESLFKGPRDYNPISSSICHLTNESDGHTTSLYGIGFGPFIITNKHLFRRNNGTLVVQSLHGVFKVKDTTTLQQHLVDGRDMIIIRMPKDFPPFPQKLKFREPQREERICLVTTNFQTKSMSSMVSDTSCTFPSGDGIFWKHWIQTKDGQCGSPLVSTRDGFIVGIHSASNFTNTNNYFTSVPKNFMELLTNQEAQQWVSGWRLNADSVLWGGHKVFMVKPEEPFQPCKEATQL [V229C],0.059,0.0478,0.0737,–,–,0.0542,0.0376,0.071,0.0533,0.067,–,–,0.0513,–,–,0.062,0.0652,0.0509,0.061
MGESLFKGPRDYNPISSSICHLTNESDGHTTSLYGIGFGPFIITNKHLFRRNNGTLVVQSLHGVFKVKDTTTLQQHLVDGRDMIIIRMPKDFPPFPQKLKFREPQREERICLVTTNFQTKSMSSMVSDTSCTFPSGDGIFWKHWIQTKDGQCGSPLVSTRDGFIVGIHSASNFTNTNNYFTSVPKNFMELLTNQEAQQWVSGWRLNADSVLWGGHKVFMVKFEEPFQPVKEATQL [P222F],0.0595,0.0619,–,0.0641,0.0584,0.0613,0.0491,0.0647,0.0566,0.0509,0.066,0.0566,0.0602,0.0623,0.0327,0.0626,0.0545,0.104,0.0642
MGESLFKGPRDYNPISSSICHLTNESDGHTTSLYGIGFGPFIITNKHLFRRNNGTLVVQSLHGVFKVKDTTTLQQHLVDGRDMIIIRMPKDFPPFPQKLKFREPQREERICLVTTNFQTKSMSSMVSDTSCTFPSGDGIFWKHWIQTKDGQCGSPLVSTRDGFIVGIHSASNFTNTNNYFTSVPKNFMELLTNQEAQQWVSGWRLNADSVLWGGHKCFMVKPEEPFQPVKEATQL [V217C],0.0417,0.0623,0.069,0.0542,–,0.0541,0.0736,0.0635,0.0623,0.0568,0.0638,0.0568,–,0.0633,0.0685,0.0761,0.0583,–,0.0479
MGESLFKGPRDYNPISSSICHLTNESDGHTTSLYGIGFGPFIITNKHLFRRNNGTLVVQSLHGVFKVKDTTTLQQHLVDGRDMIIIRMPKDFPPFPQKLKFREPQREERICLVTTNFQTKSMSSMVSDTSCTFPSGDGIFWKHWIQTKDGQCGSPLVSTRDGFIVGIHSASNFTNTNNYFTSVPKNFMELLTNQEAQQWVSGWRLNADSVLWGGHKVFMVKPKEPFQPVKEATQL [E223K],0.0521,0.0498,–,0.0853,0.0667,0.0545,0.0629,0.083,0.0657,0.0504,0.0639,–,0.0567,0.0608,0.0663,0.0598,–,0.058,0.0503
MGESLFKGPRDYNPISSSICHLTNESDGHTTSLYGIGFGPFIITNKHLFRRNNGTLVVQSLHGVFKVKDTTTLQQHLVDGRDMIIIRMPKDFPPFPQKLKFREPQREERICLVTTNFQTKSMSSMVSDTSCTFPSGDGIFWKHWIQTKDGQCGSPLVSTRDGFIVGIHSASNFTNTNNYFTSVPKNFMELLTNQEAQQWVSGWRLNADSVLWGGHKVFMVKPIEPFQPVKEATQL [E223I],0.0677,–,–,0.066,–,0.0652,0.0308,0.0602,–,0.0616,–,–,0.0526,0.0639,0.0687,–,–,–,0.065
MGESLFKGPRDYNPISSSICHLTNESDGHTTSLYGIGFGPFIITNKHLFRRNNGTLVVQSLHGVFKVKDTTTLQQHLVDGRDMIIIRMPKDFPPFPQKLKFREPQREERICLVTTNFQTKSMSSMVSDTSCTFPSGDGIFWKHWIQTKDGQCGSPLVSTRDGFIVGIHSASNFTNTNNYFTSVPKNFMELLTNQEAQQWVSGWRLNADSVLWGGHKVFMVFPEEPFQPVKEATQL [K221F],0.0577,0.0204,0.0527,0.0671,0.0458,0.0547,0.0599,0.0604,0.0574,0.0557,0.0648,–,0.0575,–,0.0548,0.0564,0.0533,0.0441,0.0578
MGESLFKGPRDYNPISSSICHLTNESDGHTTSLYGIGFGPFIITNKHLFRRNNGTLVVQSLHGVFKVKDTTTLQQHLVDGRDMIIIRMPKDFPPFPQKLKFREPQREERICLVTTNFQTKSMSSMVSDTSCTFPSGDGIFWKHWIQTKDGQCGSPLVSTRDGFIVGIHSASNFTNTNNYFTSVPKNFMELLTNQEAQQWVSGWRLNADSVLWGGHKVFMVKPEEPNQPVKEATQL [F226N],0.0742,–,0.0698,0.0696,–,0.0575,0.0727,0.0806,0.0676,0.0598,0.06,0.0614,0.0581,0.0692,0.0563,0.0505,0.0582,0.0661,0.0615
MGESLFKGPRDYNPISSSICHLTNESDGHTTSLYGIGFGPFIITNKHLFRRNNGTLVVQSLHGVFKVKDTTTLQQHLVDGRDMIIIRMPKDFPPFPQKLKFREPQREERICLVTTNFQTKSMSSMVSDTSCTFPSGDGIFWKHWIQTKDGQCGSPLVSTRDGFIVGIHSASNFTNTNNYFTSVPKNFMELLTNQEAQQWVSGWRLNADSVLWGGHKVFMVKPEEPMQPVKEATQL [F226M],0.0504,0.0495,0.0498,0.0725,–,0.0591,0.0396,0.0806,0.0542,0.0548,0.0559,0.0579,0.062,0.057,0.0503,0.0704,0.0565,0.0596,0.0508
MGESLFKGPRDYNPISSSICHLTNESDGHTTSLYGIGFGPFIITNKHLFRRNNGTLVVQSLHGVFKVKDTTTLQQHLVDGRDMIIIRMPKDFPPFPQKLKFREPQREERICLVTTNFQTKSMSSMVSDTSCTFPSGDGIFWKHWIQTKDGQCGSPLVSTRDGFIVGIHSASNFTNTNNYFTSVPKNFMELLTNQEAQQWVSGWRLNADSVLWGGHKVFMVKPEEPHQPVKEATQL [F226H],0.0807,0.0609,0.0503,0.0467,0.0704,0.0528,0.0666,0.0696,0.0637,0.0681,0.0557,0.0721,0.0623,0.0546,0.0477,0.0672,0.0571,0.0554,0.0619
MGESLFKGPRDYNPISSSICHLTNESDGHTTSLYGIGFGPFIITNKHLFRRNNGTLVVQSLHGVFKVKDTTTLQQHLVDGRDMIIIRMPKDFPPFPQKLKFREPQREERICLVTTNFQTKSMSSMVSDTSCTFPSGDGIFWKHWIQTKDGQCGSPLVSTRDGFIVGIHSASNFTNTNNYFTSVPKNFMELLTNQEAQQWVSGWRLNADSVLWGGHKVFSVKPEEPFQPVKEATQL [M219S],0.0534,0.058,0.0709,0.0733,0.0783,0.0553,0.0642,0.0649,0.0494,0.0614,0.0621,0.0576,0.0546,0.0584,0.0635,0.0525,0.0576,0.0663,0.0496
MGESLFKGPRDYNPISSSICHLTNESDGHTTSLYGIGFGPFIITNKHLFRRNNGTLVVQSLHGVFKVKDTTTLQQHLVDGRDMIIIRMPKDFPPFPQKLKFREPQREERICLVTTNFQTKSMSSMVSDTSCTFPSGDGIFWKHWIQTKDGQCGSPLVSTRDGFIVGIHSASNFTNTNNYFTSVPKNFMELLTNQEAQQWVSGWRLNADSVLWGGHKVFMWKPEEPFQPVKEATQL [V220W],0.0776,0.0676,–,0.0634,–,0.0564,0.0615,0.0612,0.0679,0.0561,0.0458,0.0612,0.0409,–,–,0.0613,0.0648,0.0605,0.0591
MGESLFKGPRDYNPISSSICHLTNESDGHTTSLYGIGFGPFIITNKHLFRRNNGTLVVQSLHGVFKVKDTTTLQQHLVDGRDMIIIRMPKDFPPFPQKLKFREPQREERICLVTTNFQTKSMSSMVSDTSCTFPSGDGIFWKHWIQTKDGQCGSPLVSTRDGFIVGIHSASNFTNTNNYFTSVPKNFMELLTNQEAQQWVSGWRLNADSVLWGGHKVFMMKPEEPFQPVKEATQL [V220M],0.0595,–,0.0629,0.0327,0.0643,0.0515,–,0.0822,–,0.0674,0.0599,–,–,0.0657,–,0.0837,0.0689,0.0627,–
MGESLFKGPRDYNPISSSICHLTNESDGHTTSLYGIGFGPFIITNKHLFRRNNGTLVVQSLHGVFKVKDTTTLQQHLVDGRDMIIIRMPKDFPPFPQKLKFREPQREERICLVTTNFQTKSMSSMVSDTSCTFPSGDGIFWKHWIQTKDGQCGSPLVSTRDGFIVGIHSASNFTNTNNYFTSVPKNFMELLTNQEAQQWVSGWRLNADSVLWGGCKVFMVKPEEPFQPVKEATQL [H215C],0.0698,0.0667,–,0.0682,–,0.053,–,0.0511,–,0.0687,0.0522,–,0.0395,–,0.051,–,–,–,–
MGESLFKGPRDYNPISSSICHLTNESDGHTTSLYGIGFGPFIITNKHLFRRNNGTLVVQSLHGVFKVKDTTTLQQHLVDGRDMIIIRMPKDFPPFPQKLKFREPQREERICLVTTNFQTKSMSSMVSDTSCTFPSGDGIFWKHWIQTKDGQCGSPLVSTRDGFIVGIHSASNFTNTNNYFTSVPKNFMELLTNQEAQQWVSGWRLNADSVLWGGHKVFMVKPEEPFQPVNEATQL [K230N],0.0652,0.0554,–,0.0716,–,0.0655,0.0641,0.061,–,0.064,0.0569,–,0.0582,0.0551,0.0499,–,0.06,0.0739,0.0488
MGESLFKGPRDYNPISSSICHLTNESDGHTTSLYGIGFGPFIITNKHLFRRNNGTLVVQSLHGVFKVKDTTTLQQHLVDGRDMIIIRMPKDFPPFPQKLKFREPQREERICLVTTNFQTKSMSSMVSDTSCTFPSGDGIFWKHWIQTKDGQCGSPLVSTRDGFIVGIHSASNFTNTNNYFTSVPKNFMELLTNQEAQQWVSGWRLNADSVLWGGHKVFMVKPEEPFQPVCEATQL [K230C],0.0604,0.0676,–,0.0692,–,0.0547,0.0512,0.079,0.0646,0.0684,0.0361,0.0656,–,0.0559,0.0474,0.0682,–,0.0717,0.0569
